According to ChEMBL document CHEMBL4888484, “Replenishing the malaria drug discovery pipeline: Screening and hit evaluation of the MMV Hit Generation Library 1 (HGL1) against asexual blood stage Plasmodium falciparum ,using a nano luciferase reporter read-out” (2022):
The whole screen tested about 150,000 compounds, of which about 540 (0.36%) showed an effect of 50% or more. This is one part of the list.

test system: Plasmodium falciparum; test: Primary screen in NF54 nanoGlo assay, in single point, at 2uM, 72h; a lower Z score goes with more inhibition; assay type: functional, Erythrocyte; conditions: timepoint 72 hour

SMILES	% Inhibition	Z score
COc1ccc(N2CCN(C(=O)Cn3c(-c4cccs4)cc4cc(Cl)ccc43)CC2)cc1	-2%	0.3
CCc1cc(N2CCN(C(=O)C[C@@H]3NC(=O)NC3=O)CC2)ncn1	3%	-0.67
CCCN1C(=O)c2cc(S(=O)(=O)NC[C@H]3CCCO3)ccc2Oc2cccnc21	0%	-0.06
O=C(NCc1ccco1)c1ccccc1-c1ccccc1	-6%	0.75
CCc1cc(C(=O)N2CCCN(C(=O)CCc3ccc(OC)cc3)CC2)sc1C	-11%	1.17
Cn1cc(CN[C@H]2[C@H](O)[C@@H](n3cnc4ccccc43)[C@@H]3OC[C@H]2O3)cn1	-7%	1.04
C[C@H](NC(=O)COc1ccc(-c2nc3ccccc3s2)cc1CN(C)C)c1ccco1	1%	-0.11
CN(C1CCN(CC(F)(F)F)C1=O)C(CO)c1cccc(F)c1 (stereo unspecified)	-6%	1.14
CCn1ncc(CN(C)c2nccnc2OC)c1C	-1%	0.18
CCC(=O)Nc1ccc(C)cc1-c1nc2ccccc2n(CC(=O)Nc2ccccc2Cl)c1=O	-5%	1.03
Cn1ccnc1C(NC(=O)C1CC(=O)N(c2ccccc2Cl)C1)c1ccc(Cl)cc1 (stereo unspecified)	13%	-1.8
Cc1cnc(CNC(CC2CCOC2)c2ccccc2)o1 (stereo unspecified)	-16%	2.33
Cc1noc(C)c1CC(=O)N1Cc2c(C(=O)NCc3cccnc3)nn(C)c2C1	-15%	1.84
Cc1cc(C(=O)NC[C@H]2CCCN(C(=O)c3ccc4c(c3)CCO4)C2)no1	-5%	0.88
Nc1ncnc(N2CCCc3ccccc32)n1	-15%	2.26
O=C(COc1ccc(Cl)cc1)NCc1ccc2c(c1)CCN2C(=O)c1ccccc1	-12%	2.31
C[C@@H](CN(C)c1nccnc1N(C)C)N1CCOCC1	4%	-0.48
COc1ccc(NC(=O)Cn2c(C)nc3c(-c4ccncc4)nsc3c2=O)cc1Cl	-6%	0.87
CS(=O)(=O)[C@H]1CCCN(C(=O)c2cc(F)c(F)c(O)c2F)CC1	3%	-0.52
O=C(CN1CCOC1=O)N(CC1CCN(Cc2ccccc2F)CC1)C[C@H]1CCCO1	-17%	1.57
O=C(NCc1cccnc1-n1ccnc1)c1ccccc1Nc1cccc(C(F)(F)F)c1	11%	-2.02

SMILES	% Inhibition	Z score
CCc1cc(CN(C)C2CCC3(CC2)CCN(C(=O)N(C)C)CC3)on1	-2%	0.44
O=S1(=O)CCN(c2nc3cc(Cl)cc(Cl)c3o2)CCC12CCC2	-10%	0.94
CC(C)Cc1nc(CN(C)S(=O)(=O)[C@H]2CCS(=O)(=O)C2)no1	-8%	1.6
Cc1cc(Cl)c(NC(=O)NCC(=O)NCC2CC2)cc1Cl	-6%	0.64
CO[C@@]12CC[C@H](OCCO)C[C@@H]1N(Cc1cn3cc(C)ccc3n1)CC2	-9%	1.09
CC1(c2noc(-c3ccccc3)n2)CCN(C(=O)C2CCN(S(=O)(=O)N3CCOCC3)CC2)CC1	-16%	2.06
CCc1cnc(CN(C)C(=O)c2cnn(C(C)(C)C)c2)s1	-9%	1.13
CC(C)C(=O)Nc1ccc(S(=O)(=O)NCC2CCN(S(=O)(=O)N(C)C)CC2)cc1	-12%	1.43
CC(C)N(C)CC1CCN(C(=O)c2c[nH]c(C(F)(F)F)c2)CC1	-8%	0.98
Cc1occc1C(=O)N1CCC[C@@](F)(c2nc(C3CC3)no2)C1	-3%	0.42
CNc1nc(C(N)=O)c(NC(=O)COc2ccccc2OC)s1	-15%	1.41
Cc1n[nH]c(C)c1CCCNC(=O)[C@@H]1Cc2ccccc2CN1C	-7%	1.24
CN(C)CCn1ccnc1C1CCN(C(=O)c2ccc3c(c2)CCC3)CC1	-15%	1.94
CCOCCCNC(=O)[C@@H](c1ccc(C)cc1)N(Cc1ccc2c(c1)OCO2)C(=O)CNC(C)=O	-3%	0.43
CCCCc1nc(-c2nc3cc4[nH]c(=O)[nH]c4cc3[nH]2)c[nH]1	10%	-1.4
O=C(Cc1ccsc1)NCC1CCOCC1	-4%	0.66
COCc1nccc(NC(=O)N2CCC(CCc3ccc(F)cc3F)CC2)n1	0%	0.08
O=C(NC1CCCC1)N1CCC(Oc2ccccc2F)(C(=O)O)CC1	-9%	0.95
O=C([C@H]1CC(=O)N(c2ccccc2)C1)N1CC(c2nc(-c3ncccn3)no2)C1	4%	-0.81
COc1ccc2[nH]c(CN[C@@H](C)Cn3cnc4ccccc4c3=O)cc2c1	-18%	1.94
CN(Cc1ccccc1)C1(C(=O)N2CCC(O)CC2)Cc2ccccc2C1	6%	-1.01

SMILES	% Inhibition	Z score
CCCS(=O)(=O)N1CCC[C@H]1c1nnc(C(=O)Nc2cccc(Cl)c2)s1	-4%	0.46
c1ccc(N2CCN(CCc3nnc4n3CCCC4)CC2)cc1	-4%	0.61
CC(CNC(=O)NC(C)C(C)CO)c1ccc(F)c(F)c1 (stereo unspecified)	-12%	1.8
O=C(O)c1cccc2c1OCCN(CCc1cccnc1)C2	-5%	0.89
Cc1nnnn1CCCN1CC[C@]2(CCCO2)CCC1=O	-5%	0.8
COc1ccc(C2(O)c3ccccc3NC(=O)C2OC)cc1 (stereo unspecified)	4%	-0.66
CCc1csc(CNC(=O)C[C@H]2CCOC2)n1	-14%	1.79
Clc1ccc(CN2CC[C@H](C3CCN(c4ncnc5c4CCC5)CC3)C2)cc1	-9%	0.83
COCC1(CNC(=O)c2ccc(-c3ccnc(C(=O)O)c3)cc2)CCC1	-5%	0.73
Cc1cc(CNc2nnc(CO)o2)cc(C)c1OCc1ccccc1Cl	1%	-0.19
CCc1ncc(CN(C)C(=O)[C@@H](C)Cc2c(C)n[nH]c2C)s1	-4%	0.48
CCCc1nc(CS(=O)(=O)CCCCC#N)cs1	24%	-2.53
c1ccc2c(c1)c(NCc1ccncc1)nn1cnnc21	-11%	1.26
FC1(F)CCN(c2cc([C@H]3CCOC3)ncn2)CC1	-5%	1.02
C=CCCCNc1ccccc1C(=O)N(C)C	-3%	0.44
CCC1(CO)CCN(C(=O)NC(C)C2CN(C)CCO2)CC1 (stereo unspecified)	-15%	1.52
O=C(c1ccco1)N1CC[C@H]2[C@H](CCC(=O)N2Cc2cccc(F)c2)C1	-5%	0.9
CNc1ccccc1C(=O)NCC1CCN(Cc2c[nH]cn2)CC1	-1%	0.16
CCS(=O)(=O)Nc1cccc2c1CN(c1ccccn1)C2	-6%	0.99
O[C@H]1CN(Cc2ccc(Cn3cccn3)cc2)C[C@@H]1N1CCN(c2ccccn2)CC1	-18%	1.68
Cc1cc(N2C(=O)CCS2(=O)=O)ccc1S(=O)(=O)Nc1cccc2cccnc12	-3%	0.45

SMILES	% Inhibition	Z score
COc1cccc(CC(=O)Nc2cc(C)ccc2N2CCCN(Cc3cccc(OC(F)(F)F)c3)C2=O)c1	1%	-0.09
Cc1ccoc1C(=O)NC[C@H](C)NC(=O)OC(C)(C)C	0%	-0.02
c1ccc2c(c1)CCC[C@H]2c1nnn[nH]1	-23%	2.15
CNCC(=O)N1CCc2onc(C(c3ccccc3)c3ccccc3)c2C1	-16%	1.82
CCn1ccc(C(=O)N2CCC(Cc3ncc(C)n3CC3CC3)CC2)n1	-14%	1.99
CNC/C=C/COc1ccccc1OC	-9%	0.98
O=C(c1noc2c1CCCC2)N1CCCc2ccccc21	0%	0.07
C[C@@H](CNC(=O)Nc1ccc(C(C)(C)C)nn1)c1nccs1	-5%	0.77
Cc1nnc(C2CCN(CC(=O)N3CC(C)OC(C)C3)CC2)s1 (stereo unspecified)	-7%	0.79
O=C1NC(=O)C2(CCN(C(=O)c3cccc(Oc4ccccc4)c3)CC2)N1	-1%	0.12
CC(=O)c1ccc(N2C[C@@H]3OC(=O)N(CCCN4CCOCC4)[C@@H]3C2)nc1	12%	-1.39
CC(=O)N(C)c1ccc(S(=O)(=O)NC[C@H]2Cc3ccccc32)cc1	0%	-0.01
CC1(C)CS(=O)(=O)N(c2cccc(C(=O)Nc3ccc4c(c3)OCO4)c2)C1=O	-9%	1.11
O=C(c1cc2n(n1)CCN(Cc1ccc(C(F)(F)F)cc1)C2=O)N1CCCCC1	-13%	1.62
CNc1ccccc1-c1ccccc1NC	-12%	1.8
Cn1cncc1CCN1CCC[C@H](NC(=O)OC(C)(C)C)C1	-12%	1.84
O=C(c1cc2ccccc2[nH]1)N1CC[C@@]2(C1)NC(=O)N(Cc1ccc(F)cc1)C2=O	9%	-1.14
Cc1ncncc1C(=O)Nc1cccnc1C1CC1	10%	-1.83
O=C(c1ccco1)N1CCN(C(=O)c2ccccc2NS(=O)(=O)c2ccc(F)c(F)c2)CC1	-12%	1.18
CCn1c(-c2cc(NC(=O)C3CCCC3)[nH]n2)cc2ccc(OC)cc21	6%	-0.93
